According to publication PMC6212790:
The list shows a part of the results. At the low end of the ranking, values are background and their order means little.

Biological target: T1, GST-Rok (full length) (UniProt O34857)
T1 sequence: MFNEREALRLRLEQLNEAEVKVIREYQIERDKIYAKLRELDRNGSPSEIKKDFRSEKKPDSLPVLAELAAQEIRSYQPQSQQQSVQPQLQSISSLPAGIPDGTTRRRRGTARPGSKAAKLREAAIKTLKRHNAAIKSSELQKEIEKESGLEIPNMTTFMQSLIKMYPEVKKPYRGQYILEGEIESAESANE
Assay: protein binding microarray;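 note: rank score from −0.5 (least bound) to 0.5 (best bound)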
Settings: Rok is a gene silencer of Bacillus subtilis; high values mean tight binding; most listed sequences are background and not binding sites; double strand, one strand shown

AGTCTGTC was tested. Which binding signal did it give?
The binding signal was -0.191 E-score.

How did the binding signal turn out when TAGGTTAA was run?
Its binding signal is -0.0308 E-score.

For CAAGAGTA, which binding signal is on record?
Its binding signal is 0.064 E-score.

Which binding signal does the source give for CCTTTGCC here?
Its binding signal is -0.279 E-score.

How did the binding signal turn out when CTCTAAGA was run?
Its binding signal is -0.218 E-score.

How did the binding signal turn out when AGGGCCAA was run?
Its binding signal is -0.217 E-score.

Which binding signal does the source give for ACCAGGTC here?
Its binding signal is -0.146 E-score.

With GAACATTC as the sequence, how does the binding signal read?
Its binding signal is 0.142 E-score.

GTTTAGGA was tested. Which binding signal did it give?
The binding signal was -0.106 E-score.

With AACTGGAT as the sequence, how does the binding signal read?
Its binding signal is 0.0867 E-score.

GGCCGTCA was tested. Which binding signal did it give?
Its binding signal is -0.121 E-score.

ACGTAGGA was tested. Which binding signal did it give?
Its binding signal is -0.0621 E-score.

For AAGAAATG, which binding signal is on record?
Its binding signal is -0.0824 E-score.

How did the binding signal turn out when AGCGCTTA was run?
The binding signal was -0.136 E-score.

With CGTGTGTA as the sequence, how does the binding signal read?
The binding signal was -0.151 E-score.

How did the binding signal turn out when AACCCTTG was run?
The binding signal was -0.285 E-score.

For GAGTGATA, which binding signal is on record?
Its binding signal is 0.244 E-score.

For CACTCCGG, which binding signal is on record?
The binding signal was -0.138 E-score.

AGCAGTTG was tested. Which binding signal did it give?
The binding signal was 0.0352 E-score.

How did the binding signal turn out when GGATCACA was run?
Its binding signal is -0.0818 E-score.

With CCGGGGCA as the sequence, how does the binding signal read?
Its binding signal is -0.325 E-score.

For CTACTTTC, which binding signal is on record?
Its binding signal is 0.287 E-score.

CCCTCCGC was tested. Which binding signal did it give?
The binding signal was -0.385 E-score.

How did the binding signal turn out when AAAGAGTA was run?
Its binding signal is 0.0389 E-score.

ACCTTAGT was tested. Which binding signal did it give?
Its binding signal is -0.00126 E-score.

With GTGAAGGA as the sequence, how does the binding signal read?
Its binding signal is -0.312 E-score.

CGATGAAC was tested. Which binding signal did it give?
The binding signal was -0.25 E-score.

CAAAGAAC was tested. Which binding signal did it give?
The binding signal was 0.124 E-score.

Which binding signal does the source give for CTTACTAA here?
The binding signal was 0.222 E-score.

With ACCAACCT as the sequence, how does the binding signal read?
The binding signal was 0.177 E-score.

With TACCCAGA as the sequence, how does the binding signal read?
The binding signal was 0.0326 E-score.

With AGACAGAT as the sequence, how does the binding signal read?
The binding signal was 0.046 E-score.

How did the binding signal turn out when AAACTAGA was run?
The binding signal was 0.355 E-score.

How did the binding signal turn out when AGTTCGTG was run?
The binding signal was 0.008 E-score.

For TCGACTAA, which binding signal is on record?
The binding signal was 0.00662 E-score.

CCAATTAC was tested. Which binding signal did it give?
The binding signal was -0.00853 E-score.

Which binding signal does the source give for GAATCACA here?
Its binding signal is 0.141 E-score.

AAAGTGGT was tested. Which binding signal did it give?
The binding signal was 0.122 E-score.

For AGAGGCGC, which binding signal is on record?
The binding signal was -0.324 E-score.

Which binding signal does the source give for ACTCGCCT here?
The binding signal was -0.139 E-score.

For AACCCACT, which binding signal is on record?
The binding signal was 0.0541 E-score.

For CGGACGAG, which binding signal is on record?
Its binding signal is -0.248 E-score.

For GACAAAGC, which binding signal is on record?
The binding signal was -0.181 E-score.

Which binding signal does the source give for TCTTGAAA here?
Its binding signal is -0.187 E-score.

With CGAGCGAG as the sequence, how does the binding signal read?
The binding signal was -0.138 E-score.

With GATGGAGA as the sequence, how does the binding signal read?
The binding signal was -0.0862 E-score.

With TAAACCAA as the sequence, how does the binding signal read?
The binding signal was 0.0841 E-score.

ACTCAGGA was tested. Which binding signal did it give?
The binding signal was 0.0154 E-score.

For AAGCCGGA, which binding signal is on record?
The binding signal was -0.186 E-score.

GCGAGGGA was tested. Which binding signal did it give?
The binding signal was -0.365 E-score.

How did the binding signal turn out when ACCGTAAA was run?
The binding signal was 0.118 E-score.

Which binding signal does the source give for GGCTCAAC here?
Its binding signal is -0.242 E-score.

GACCACGA was tested. Which binding signal did it give?
Its binding signal is -0.147 E-score.

CACTCAAG was tested. Which binding signal did it give?
Its binding signal is -0.0729 E-score.

With GCAACGGC as the sequence, how does the binding signal read?
Its binding signal is -0.254 E-score.

How did the binding signal turn out when CCGGACCC was run?
The binding signal was -0.282 E-score.

ACACCATG was tested. Which binding signal did it give?
Its binding signal is 0.138 E-score.

With ATGTGATC as the sequence, how does the binding signal read?
The binding signal was 0.0995 E-score.

For CACCGATC, which binding signal is on record?
The binding signal was -0.0461 E-score.

CCAGTAGC was tested. Which binding signal did it give?
The binding signal was 0.286 E-score.

For AAGTTTGA, which binding signal is on record?
Its binding signal is -0.0342 E-score.

How did the binding signal turn out when GGAAGAAC was run?
Its binding signal is -0.151 E-score.

How did the binding signal turn out when CTCGTGGA was run?
The binding signal was -0.327 E-score.

How did the binding signal turn out when TAGTACCA was run?
The binding signal was 0.166 E-score.

Which binding signal does the source give for CAGGGAGC here?
The binding signal was -0.205 E-score.

CACGACCG was tested. Which binding signal did it give?
Its binding signal is -0.0612 E-score.

For CCATAACG, which binding signal is on record?
The binding signal was 0.0703 E-score.

For CAGATCCC, which binding signal is on record?
Its binding signal is -0.178 E-score.

AAATGCCG was tested. Which binding signal did it give?
Its binding signal is 0.135 E-score.

For AATGAACG, which binding signal is on record?
Its binding signal is -0.0464 E-score.

ATAAGGTA was tested. Which binding signal did it give?
Its binding signal is 0.166 E-score.

AGTGCGGC was tested. Which binding signal did it give?
Its binding signal is -0.198 E-score.

How did the binding signal turn out when CCATATCC was run?
Its binding signal is -0.0185 E-score.

How did the binding signal turn out when GTCGGTGA was run?
Its binding signal is -0.0245 E-score.

With CAGGCTAA as the sequence, how does the binding signal read?
The binding signal was -0.122 E-score.

For CGCAGTGA, which binding signal is on record?
The binding signal was -0.145 E-score.

How did the binding signal turn out when CTGGTCGC was run?
Its binding signal is -0.191 E-score.

With CCAACACG as the sequence, how does the binding signal read?
The binding signal was -0.133 E-score.

Which binding signal does the source give for AAACACTT here?
Its binding signal is -0.0627 E-score.

How did the binding signal turn out when GGAGACAA was run?
The binding signal was -0.141 E-score.

CACGATAG was tested. Which binding signal did it give?
Its binding signal is 0.202 E-score.

With GCTCCGAC as the sequence, how does the binding signal read?
Its binding signal is -0.214 E-score.

How did the binding signal turn out when CCATCCCA was run?
Its binding signal is -0.168 E-score.

With ACGACTTG as the sequence, how does the binding signal read?
The binding signal was 0.0118 E-score.

Which binding signal does the source give for GGTTACAC here?
Its binding signal is -0.0803 E-score.

GGGTGAAA was tested. Which binding signal did it give?
Its binding signal is -0.0595 E-score.

For CCTTTTAG, which binding signal is on record?
The binding signal was 0.0515 E-score.

With ACCCTCCA as the sequence, how does the binding signal read?
Its binding signal is -0.218 E-score.

AACCAACC was tested. Which binding signal did it give?
The binding signal was 0.0319 E-score.

How did the binding signal turn out when CGACACCC was run?
The binding signal was -0.162 E-score.

How did the binding signal turn out when CCAGCAGG was run?
The binding signal was -0.316 E-score.

How did the binding signal turn out when AAAGATAT was run?
The binding signal was 0.279 E-score.

Which binding signal does the source give for GTTACATA here?
The binding signal was 0.212 E-score.

For ACCCCCCT, which binding signal is on record?
The binding signal was -0.329 E-score.
